Experimental data as given in article PMC4336329 (PLoS ONE, 2015).
Hit rate of the full screen: of about 310,000 compounds, about 14,000 (4.5%) showed an effect of 50% or more. The effect is printed as a negative number. The list shows a part of the results.

molecular target: human ether-à-go-go-related gene (hERG) potassium channel (human, UniProt Q12809); test: primary screen, population patch clamp on CHO cells stably expressing hERG
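Note: peak tail current of the secondary pulse compared with the same well before compound.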

Chain of human ether-à-go-go-related gene (hERG) potassium channel (Q12809 whole entry, looked up): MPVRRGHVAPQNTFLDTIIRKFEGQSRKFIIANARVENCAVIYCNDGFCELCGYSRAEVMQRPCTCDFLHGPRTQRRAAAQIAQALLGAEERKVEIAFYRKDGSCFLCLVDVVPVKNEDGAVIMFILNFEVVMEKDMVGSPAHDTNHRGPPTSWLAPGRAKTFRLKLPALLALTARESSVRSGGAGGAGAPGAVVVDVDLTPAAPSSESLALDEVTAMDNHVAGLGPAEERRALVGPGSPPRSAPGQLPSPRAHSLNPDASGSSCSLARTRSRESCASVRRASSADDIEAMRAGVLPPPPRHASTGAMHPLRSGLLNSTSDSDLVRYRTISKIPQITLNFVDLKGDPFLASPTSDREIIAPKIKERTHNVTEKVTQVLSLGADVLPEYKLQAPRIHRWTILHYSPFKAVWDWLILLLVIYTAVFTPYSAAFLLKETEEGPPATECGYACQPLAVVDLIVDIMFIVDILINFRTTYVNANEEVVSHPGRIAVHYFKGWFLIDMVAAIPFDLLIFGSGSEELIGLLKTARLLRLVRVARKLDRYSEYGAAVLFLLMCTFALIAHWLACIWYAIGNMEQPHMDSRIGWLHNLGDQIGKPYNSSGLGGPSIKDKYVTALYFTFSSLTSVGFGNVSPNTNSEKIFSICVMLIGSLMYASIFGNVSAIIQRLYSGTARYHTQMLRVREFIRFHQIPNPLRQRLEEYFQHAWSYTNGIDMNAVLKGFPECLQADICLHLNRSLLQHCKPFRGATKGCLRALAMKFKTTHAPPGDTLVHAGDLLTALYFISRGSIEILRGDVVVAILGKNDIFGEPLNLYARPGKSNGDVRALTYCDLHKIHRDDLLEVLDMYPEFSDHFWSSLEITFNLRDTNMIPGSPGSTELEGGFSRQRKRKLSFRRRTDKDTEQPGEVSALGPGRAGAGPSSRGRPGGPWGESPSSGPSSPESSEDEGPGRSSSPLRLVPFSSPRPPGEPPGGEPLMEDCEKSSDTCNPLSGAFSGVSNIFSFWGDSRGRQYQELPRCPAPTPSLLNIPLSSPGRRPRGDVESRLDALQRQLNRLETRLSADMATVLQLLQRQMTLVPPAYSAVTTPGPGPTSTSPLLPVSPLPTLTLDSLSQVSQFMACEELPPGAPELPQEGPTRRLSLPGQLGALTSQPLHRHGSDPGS

SMILES | hERG current change (%, negative = inhibition) at 10uM [%]
COCC(C)NC(=O)CCSc1nc(-c2ccc(OC)cc2)cc(C(F)(F)F)n1 (stereo not shown) | -44.9
Cc1cc(C)cc(NC(=O)Cn2nnc(C(=O)NCc3ccc(F)cc3)c2N)c1 | 11.1
Fc1ccccc1NC(=S)N(CCN1CCCCCC1)Cc1cccs1 | -53
O=C(Nc1sccc1C(=O)NCc1ccco1)c1cccnc1 | -3.08
COc1ccc(N2CCN(C(=O)CCS(=O)(=O)c3ccc4c(c3)CCN4C(=O)C3CC3)CC2)cc1 | -6.6
Nc1ccc(C(=O)OCc2csc(-c3ccccc3)n2)cc1[N+](=O)[O-] | 25.6
COc1ccc(CNCc2ccncc2)cc1OC.Cl | 11.6
CC(C)C1=Nc2cccc3cccc(c23)N1.Cl | 1.81
COc1ccc(NS(=O)(=O)c2ccc(N3CCOCC3)c(N)c2)cc1 | 0.0324
Cc1ccc(NC(=O)C2CCCN(c3ncnc4c3nc3n4CCCCC3)C2)nc1 (stereo not shown) | -62.5
CC1(C)CC2(CCO1)OC(=O)CC2C(=O)Nc1c(Cl)cccc1Cl (stereo not shown) | 4.11
O=C(CC1CCCCC1)N=C1SC2CS(=O)(=O)CC2N1c1ccccc1 (stereo not shown) | 4.69
O=C(/C(=C(\O)c1ccccc1)c1ncc[nH]1)c1ccccc1 | 5.69
BrC(=C\c1ccccc1)/C=N/N1CCN(c2ccccn2)CC1 | -15.7
Cc1cc(=O)[nH]c(SCc2nnc(-c3ccccc3)o2)n1 | 12.7
O=C(c1sc2ccccc2c1Cl)N1CCN(c2ccccn2)CC1 | -68.7
Cc1ccc(CNC(=O)C2CCCN2C(=O)Nc2ccc(F)cc2)cc1 (stereo not shown) | 0.282
N#Cc1ccc(C(=O)N2CCN(S(=O)(=O)c3ccc(Br)s3)CC2)cc1 | -63.5
O=C(Nc1cc(N2CCOCC2)ncn1)c1ccccc1 | -5.71
Cc1ccc(/C(N)=N/OC(=O)Cc2cccc3ccccc23)cc1 | 1.46
NS(=O)(=O)c1ccc(NC(=S)N2CCN(c3cccc(Cl)c3)CC2)cc1 | 3.83
COc1ccc(Cl)cc1NC(=O)CN(C)C(=O)c1ccc(OCc2ccccc2)c(OC)c1 | 6.49

SMILES | hERG current change (%, negative = inhibition) at 10uM [%]
Cc1ccc(C)c(SCc2nc3sc(C(=O)O)c(C)c3c(=O)[nH]2)c1 | 7.9
COc1cc(OC)c(S(=O)(=O)N2CCN(C(=O)c3ccco3)CC2)cc1NC(C)=O | 11.5
Cc1ccccc1NC(=O)CN1CCc2ccccc2C1 | 17.5
O=S(=O)(NC1CC1)c1ccc(S(=O)(=O)N2CCc3ccccc32)cc1 | -6.24
COc1ccc(OC)c(CN2CCN(c3ccc(S(=O)(=O)N4CCCC4)cn3)CC2)c1 | -36.5
Cc1ccccc1NC(=O)CCNS(=O)(=O)c1ccc2c(c1)CCC(=O)N2 | -7.57
CCCC(=O)NC(=S)Nc1ccc(S(=O)(=O)Nc2ccc(OCC)cc2)cc1 | -5.2
O=C(CN1C(=O)COc2ccccc21)Nc1ccc(N2CCOCC2)cc1 | -3.25
CCN1C(=O)CSC1=Nc1ccc(OC)cc1 | 16
COc1c(NC(C)=O)c2ccccc2c2ccccc12 | 6.65
Fc1ccc(NC(=S)NCCN2CCOCC2)cc1 | 13.9
CCc1ccc(S(=O)(=O)c2nnn3c2nc(N2CCOCC2)c2ccccc23)cc1 | 13.2
CCn1c(SCC(=O)Nc2ccc(OC)c(OC)c2)nnc1-c1c[nH]c2ccccc12 | -19.9
CCOC(=O)N1CCN(S(=O)(=O)N2CCCC(C(=O)NCCCN3CCC(C)CC3)C2)CC1 (stereo not shown) | 16.2
COc1ccc(C2=CC3=C(Br)C(=O)C(C)(OC(=O)c4ccc(Cl)nc4)C(=O)C3=CO2)cc1 (stereo not shown) | 0.675
CC(=O)NCCSC(=O)c1ccc(F)cc1 | 11.3
CCOC(=O)N1CCN(C(=O)CCc2ccc(S(=O)(=O)NC(C)(C)C)cc2)CC1 | 11.3
CC(C)Oc1cccc(NC(=O)c2cccn(Cc3ccc4c(c3)OC(F)(F)O4)c2=O)c1 | 3.02
CCOC(=O)c1ccc(N2C(=O)c3n[nH]c(C)c3C2c2ccc(OC)c(OC)c2)cc1 (stereo not shown) | -14.2
CCOc1ccc(S(=O)(=O)N2CCC(C(=O)NCC3CCCO3)CC2)cc1 (stereo not shown) | -16
CCCC/C(O)=C1\C(=O)CCCC1=NCCc1c(C)[nH]c2ccc(OC)cc12 | -4.57
O=C(NC(NCc1ccccn1)(C(F)(F)F)C(F)(F)F)c1ccco1 | -1.88

SMILES | hERG current change (%, negative = inhibition) at 10uM [%]
N#C/C(=C\c1ccc(-c2ccccc2)cc1)c1nc(-c2ccco2)cs1 | -1.39
C=CCSc1nnc2n(-c3ccccc3OC)c(=O)c3c4c(sc3n12)CCC4 | -64.5
CC(=O)N1CCN(C(=O)CN2C(=O)NC(C)(c3ccc4ccccc4c3)C2=O)CC1 (stereo not shown) | 16.7
COc1cccc(CNC(=O)Cn2ccc3cc(S(=O)(=O)N4CCCCCC4)ccc32)c1 | 4.25
CC(C)(C)c1ccc(OCCNC(=S)Nc2ccccc2)cc1 | 8.17
Cc1cc(C)cc(Nc2ccc3nonc3c2[N+](=O)[O-])c1 | -2.16
CCOc1ccc(-c2nc3ccccc3c(=O)o2)cc1 | 14.4
C[C@@]12CCC3[C@@](CC[C@@H]4[C@](C)(C(=O)O)CCC[C@@]34C)(C[C@H]1O)C2 (stereo partly shown) | 11
COc1cccc(NC(=O)C2COc3ccccc3O2)c1 (stereo not shown) | 5.51
COc1ccccc1N1C(=O)c2cccc3cccc(c23)C1=O | 11.9
CN(C)C1(c2nnnn2-c2ccc(Cl)cc2)CCCCC1 | -6.33
O=C(NNC(=S)Nc1ccccc1C(F)(F)F)C1CC1 | 10.2
CNC(=S)Nc1ccc(-c2nc3ccc(C)cc3s2)cc1 | 14.1
Cc1occc1C(=O)N1CCCC(N2CCN(c3cccc(Cl)c3)CC2)C1 (stereo not shown) | -29.7
COc1ccc(CCNC(=O)CSc2ccc(-c3ccncc3)nn2)cc1 | -14.7
CO/N=C/NC(=O)c1c(OC)ccnc1Oc1ccc(Cl)cc1 | -8.03
COc1ccccc1CC(=O)Nc1ccc(O)cc1C(=O)O | 0.828
CN(CC(=O)Nc1cccc(F)c1)CC(=O)Nc1cc(S(=O)(=O)N2CCOCC2)ccc1Cl | -45.8
CC(=O)Nc1c2c(nn1-c1ccccc1)CS(=O)C2 (stereo not shown) | 22.3
Cc1ccccc1CN(C)CCS(=O)(=O)c1cc(Cl)ccc1Cl | 15.9
CC(C)(C)Cn1c(=O)[nH]c(=O)c2cc([N+](=O)[O-])cnc21 | 1.73
O=C(CN1C(=O)NC2(CCCC2)C1=O)NCCN1C(=O)S/C(=C\c2ccccc2F)C1=O | -1.75

SMILES | hERG current change (%, negative = inhibition) at 10uM [%]
CCc1ccccc1NC(=S)N(CCCN1CCOCC1)Cc1cccs1 | -53.5
CCCCNc1cc(NC(C)=O)cc2cc(OC)c(OC)cc12 | -5.09
NS(=O)(=O)c1cc(C(=O)O)c(NCc2ccco2)cc1Cl | 14.7
COc1ccc(-c2noc(C3CCCN(C(=O)c4ccccc4)C3)n2)cc1 (stereo not shown) | -45.1
CCCCNC(=O)c1cn(CC)c2cc(N3CCN(C(=O)c4ccco4)CC3)c(F)cc2c1=O | -33.8
CCOC(=O)c1c(NC(=O)c2c(Br)cnn2C)c(C#N)nn1-c1ccccc1 | -12.2
COc1ccc(Cl)cc1Nc1nc(N)nc(C(F)(F)F)n1 | -16.2
Oc1c(C=C2N=c3ccccc3=N2)sc(=S)n1C1CCCCC1 [17505580] | -2.3
COc1ccccc1OC(C)C(=O)N1CCc2ccccc21 (stereo not shown) | 1.29
COc1ccc(N2CCN(C(=O)CCC(=O)N3CCOc4ccc(C)cc43)CC2)cc1 | -42.7
COc1c(C)cc(C(=O)C2CCCN(C(=O)/C=C/c3ccccn3)C2)cc1C (stereo not shown) | -15.8
Cn1c(=O)n(CC(N)=O)c(=O)c2c1nc(Br)n2Cc1ccccc1 | 22.3
Fc1ccccc1CN(CCN1CCOCC1)C(=S)Nc1ccccc1Cl | -6.77
O=C(c1ccc(Cl)s1)N1CCCC(N2CCN(c3ccc(F)cc3)CC2)C1 (stereo not shown) | -70.1
O=C(N/N=C/c1c(O)n(C2CCCCC2)c(=S)[nH]c1=O)c1ccccc1 | 6.44
COc1ccc(C(=O)NNC(=O)CCCCC(=O)NNC(=O)c2ccc(OC)cc2)cc1 | -0.256
Cc1ccc(C(=O)C2CCN(CC(=O)NC3CCCC3)CC2)cc1 | -19
Cc1ccnc(NC(=O)COC(=O)c2ccc(F)cc2F)n1 | 6.04
Cl.Oc1cccc(C(O)CNCc2ccc(-c3ccccc3)cc2)c1 (stereo not shown) | -66
O=C1c2ccccc2C2(c3ccc(F)cc3)NCCN12 (stereo not shown) | 10.8
CN(c1ccc(C(=O)NCc2cccnc2)cc1)S(C)(=O)=O | -5.37
COc1ccc2[nH]c3c(c2c1)CCN1C(=O)N([C@@H](C)C(=O)NCCc2ccc(OC)c(OC)c2)C(=O)[C@]31C | -6.62
